# Results published in PubChem BioAssay AID485294 (National Center for Advancing Translational Sciences (NCATS), 2010).
# Screen size: about 370,000 compounds; about 150 (0.041%) were called active. This list was built around the results that the source calls inconclusive (neither active nor inactive); the mix of calls is not that of the screen. The call rests on the fitted dose curve; in most records, active means well fitted inhibition curve with a large enough effect; inconclusive means small, poorly fitted or top-dose-only effect; inactive means flat fitted curve, though single readings scatter. Potencies of inconclusive entries are left out as doubtful fits.
# Target: Beta-lactamase (Escherichia coli (strain K12)) (UniProt P00811)
# UniProt P00811, sequence (P00811 whole entry, looked up): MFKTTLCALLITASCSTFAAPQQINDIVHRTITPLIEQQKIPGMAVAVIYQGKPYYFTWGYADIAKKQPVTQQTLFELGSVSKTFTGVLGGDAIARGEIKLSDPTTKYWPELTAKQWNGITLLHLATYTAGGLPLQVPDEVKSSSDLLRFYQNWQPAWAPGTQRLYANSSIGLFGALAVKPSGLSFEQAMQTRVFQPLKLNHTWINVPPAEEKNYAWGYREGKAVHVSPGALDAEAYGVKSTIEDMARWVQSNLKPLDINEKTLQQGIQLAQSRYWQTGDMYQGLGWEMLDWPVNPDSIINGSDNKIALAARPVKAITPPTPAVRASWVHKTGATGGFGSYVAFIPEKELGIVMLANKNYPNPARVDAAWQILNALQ
# Assay: qHTS Inhibitors of AmpC Beta-Lactamase (assay with detergent); further: nearly all actives have a fitted effect of over 25% in size
# Conditions: AmpC hydrolysis of nitrocefin, absorbance 480 nm, 0.01% Triton; series mostly up to 114 µM
# Summary of the method: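 AmpC (5.3 nM in the dispensed reagent) in 20 mM phosphate pH 7.0 with 0.01% (detergent screen) or 0.0001% Triton X-100 was preincubated with compounds for 15 min at room temperature. Nitrocefin was then added from an 800 uM solution, and hydrolysis was followed at 480 nm.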
# Potency means the concentration at half of the fitted maximal effect; tags describe the fitted curve by direction and shape.
row,SMILES,Potency
1,O=C(CCCN1CCN(c2ccccn2)CC1)c1ccc(F)cc1,"inconclusive [inhibitor, full curve, poor fit]"
2,O=C(Nc1nc2ccccc2[nH]1)c1ccc(F)c(S(=O)(=O)N2CCOCC2)c1,inactive
3,O=C(Nc1ccnn1C1CCN(C/C=C/c2ccccc2)CC1)c1ccccc1,"inconclusive [inhibitor, full curve, poor fit]"
4,O=C(C1COc2ccccc2O1)N1CCOCC1 (stereo unspecified),"inconclusive [inhibitor, full curve, poor fit]"
5,CCCCSc1nc2c(cnn2-c2ccc(C)c(C)c2)c(=O)[nH]1,"inconclusive [inhibitor, full curve, poor fit]"
6,NC(=O)c1cccc(S(=O)(=O)N2CC(c3ccccc3)CC2=O)c1 (stereo unspecified),"inconclusive [inhibitor, full curve, poor fit]"
7,Cc1ccc(CSc2nnc(-c3ccncc3)n2C)cc1,"inconclusive [inhibitor, full curve, poor fit]"
8,COc1ccc(/C=N/n2c(SC)nnc2-c2ccccc2)c(OC)c1OC,"inconclusive [inhibitor, full curve, poor fit]"
9,O=C(CC1C(=O)NCCN1Cc1ccccc1C(F)(F)F)NC1CCCC1 (stereo unspecified),"inconclusive [inhibitor, full curve, poor fit]"
10,Brc1ccc(-c2csc3ncnc(-n4nnc5ccccc54)c23)cc1,inactive
11,O=C(Nc1cc2c(cc1Br)OCCO2)c1cccs1,"inconclusive [inhibitor, full curve, poor fit]"
12,O=C(CNS(=O)(=O)c1ccc(Cl)c(C(F)(F)F)c1)NC1CCCCCC1,"inconclusive [inhibitor, full curve, poor fit]"
13,CN1C(=O)C(=O)/C(=C(/O)c2ccccc2)C1c1ccc(Br)cc1 (stereo unspecified),"inconclusive [inhibitor, full curve, poor fit]"
14,O=C(N/N=C/c1ccc(Br)s1)Nc1ccccc1,inactive
15,O=C(Nc1ccc(Cl)cn1)c1cccc2ccccc12,"inconclusive [inhibitor, partial curve, poor fit]"
16,Cc1ccc(NS(=O)(=O)c2cccc(C(=O)O)c2)c(C)c1,"inconclusive [inhibitor, partial curve, poor fit]"
17,COc1ccccc1/C=C/C(=O)NCC(=O)N/N=C/c1ccccc1,inactive
18,CC(NC(=O)CSc1n[nH]c(=O)n1C1CC1)C12CC3CC(CC(C3)C1)C2 (stereo unspecified),"inconclusive [inhibitor, single point]"
19,CCOc1ccc(/C=C2/C(=O)NC(=O)N(CCc3ccc(F)cc3)C2=O)cc1,inactive
20,CCCN(C(=O)CSCc1ccc(Cl)cc1)c1c(N)n(Cc2ccccc2)c(=O)[nH]c1=O,"inconclusive [inhibitor, full curve]"
21,O=C(CSc1nc2[nH]ncc2c(=O)[nH]1)Nc1cccc([N+](=O)[O-])c1,"inconclusive [inhibitor, full curve, poor fit]"

row,SMILES,Potency
1,COc1ccc(CNCc2c(C(=O)O)c(C)n(Cc3ccccc3C)c2C)cc1OC,inactive
2,O=C(N/N=C/c1cccnc1)c1cc(-c2ccccc2Cl)nc2ccccc12,"inconclusive [inhibitor, full curve, poor fit]"
3,CSc1cccc(NC(C)=O)c1,"inconclusive [inhibitor, partial curve]"
4,O=S(=O)(CCSc1nc2ccccc2o1)c1nc2ccccc2s1,inactive
5,CCOc1ccc(NC(=O)C2CC=CCC2C(=O)O)cc1 (stereo unspecified),"inconclusive [inhibitor, full curve, poor fit]"
6,CN(C)C1C(=O)C(C(N)=O)=C(O)C2(O)C(=O)C3=C(O)c4c(O)cccc4C(C)(O)C3CC12 (stereo unspecified),"inconclusive [inhibitor, single point]"
7,COc1cc(CN(C2CCCCC2)S(=O)(=O)c2ccc(S(=O)(=O)N(C)C3CCCCC3)cc2)cc(OC)c1OC,inactive
8,CCCC(C)NS(=O)(=O)c1ccccc1 (stereo unspecified),"inconclusive [inhibitor, full curve, poor fit]"
9,CCCc1nc(SCc2ccccn2)c2c(=O)n(C)c(=O)n(C)c2n1,"inconclusive [inhibitor, full curve, poor fit]"
10,CCOc1cc(NC(=O)Nc2ccccc2)c(OCC)cc1NC(=O)CC,"inconclusive [inhibitor, full curve]"
11,CSc1ccccc1C(=O)OCC(=O)N1CCCC1=O,"inconclusive [inhibitor, full curve, poor fit]"
12,COc1ccc(/C=C/C(=O)NCc2c(C)nn(C)c2C)cc1COc1ccc(Br)cc1,"inconclusive [inhibitor, full curve, poor fit]"
13,COc1ccc(CCN2CC(C(=O)NCc3nc(C)c(C)s3)CCC2=O)cc1 (stereo unspecified),"inconclusive [inhibitor, partial curve, poor fit]"
14,Cc1ccc(CN2C(=O)N/C(=C/c3ccc(-c4ccc(C(=O)O)cc4)o3)C2=O)cc1,inactive
15,CCc1nnc(NC(=O)CC(C)c2ccccc2)s1 (stereo unspecified),"inconclusive [inhibitor, full curve, poor fit]"
16,Cc1ccc(C(=O)Nc2cccc(-c3ccc(N4CCOCC4)nn3)c2)cc1,"inconclusive [inhibitor, partial curve, poor fit]"
17,COc1ccc(NC(=O)Cn2nc(Cc3cccnc3)c3ccccc3c2=O)cc1OC,"inconclusive [inhibitor, full curve, poor fit]"
18,C#CCN1C(=O)S/C(=C/c2cc(C)n(CC)c2C)C1=O,"inconclusive [inhibitor, partial curve, poor fit]"
19,COCCCn1c(C)nnc1SCC(=O)Nc1cccc(C)c1,"inconclusive [inhibitor, single point]"
20,Cc1cc(C(=O)Nc2nncs2)oc1C,"inconclusive [inhibitor, full curve, poor fit]"
